Measured values: the supplement of paper PMC10441789
Some of the results follow. Antibody binding of pooled human sera (four to six donors per pool; dilution not stated) to peptides of the Trypanosoma cruzi antigen TSSA on microarrays. Quantile-normalised fluorescence in arbitrary units, mean of duplicate arrays; higher = more binding. No active / inactive call. The uninfected pools are read here as the healthy donors of the same country. The strongest signals lie near the top of the scale (about 60,000).

What was measured:
Test in all cases: antibody binding signal (normalised fluorescence) (arbitrary fluorescence units); higher = stronger serum antibody binding to peptide
[1] = test system: pooled sera of chronic Chagas disease patients, Argentina
Method: (§1)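 Microarray of 15-residue peptides over residues 30-55 of Trypanosoma cruzi TSSAII, each with 1 to 10 substitutions at naturally variable positions, probed with one serum pool per country.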

[2] = test system: pooled sera of chronic Chagas disease patients, Bolivia
Method: as §1

[3] = test system: pooled sera of chronic Chagas disease patients, Brazil
Method: as §1

[4] = test system: pooled sera of chronic Chagas disease patients, Colombia
Method: as §1

[5] = test system: pooled sera of chronic Chagas disease patients, Mexico
Method: as §1

[6] = test system: pooled sera of chronic Chagas disease patients, USA
Method: as §1

[7] = test system: pooled sera of uninfected people, Argentina
Method: as §1

[8] = test system: pooled sera of uninfected people, Bolivia
Method: as §1

[9] = test system: pooled sera of uninfected people, Brazil
Method: as §1

[10] = test system: pooled sera of uninfected people, Mexico
Method: as §1

[11] = test system: pooled sera of uninfected people, USA
Method: as §1

Sequence | antibody binding signal [1] | antibody binding signal [2] | antibody binding signal [3] | antibody binding signal [4] | antibody binding signal [5] | antibody binding signal [6] | antibody binding signal [7] | antibody binding signal [8] | antibody binding signal [9] | antibody binding signal [10] | antibody binding signal [11]
ENKTAAGGTPSQPGA | 1420 | 1850 | 982 | 6900 | 435 | 2180 | 438 | 206 | 1520 | 3160 | 225
PPSGKENKAATGETP | 17100 | 10200 | 7400 | 870 | 2180 | 12200 | 3190 | 1980 | 346 | 237 | 325
TDNKPAAGETPSQSG | 939 | 460 | 19700 | 356 | 196 | 2440 | 77.4 | 462 | 200 | 375 | 83.8
GTDKKPAAGGAPSPS | 416 | 343 | 1080 | 9520 | 567 | 1010 | 218 | 298 | 201 | 526 | 212
GTDNKPATGETPSPP | 37100 | 31900 | 40400 | 1350 | 305 | 26400 | 257 | 752 | 349 | 1740 | 594
TPPSGKEKKTAAGET | 5030 | 425 | 972 | 683 | 19800 | 1770 | 424 | 590 | 101 | 174 | 140
GTENKPAAGEAPSQS | 43200 | 22900 | 32100 | 2100 | 4410 | 17300 | 317 | 1550 | 293 | 165 | 109
GTENKTAAGETPSQP | 30200 | 4570 | 31600 | 2110 | 3040 | 3390 | 189 | 384 | 203 | 193 | 114
SGKEKKAAAGGTPSQ | 3090 | 812 | 1970 | 6190 | 5320 | 5330 | 147 | 114 | 445 | 84.1 | 108
TSSTPPSGTDKKPAA | 40200 | 15700 | 45500 | 12900 | 51300 | 11700 | 1960 | 247 | 202 | 2820 | 562
STPPSGKDKKPATGG | 21700 | 3200 | 14400 | 607 | 41700 | 4120 | 583 | 465 | 168 | 142 | 302
GKDNKPATGETPSQP | 35600 | 22400 | 43300 | 2610 | 3570 | 29100 | 462 | 806 | 439 | 1980 | 149
KDKKTAAGEAPSQPG | 2480 | 6220 | 25600 | 251 | 186 | 3920 | 254 | 112 | 101 | 78.7 | 98.2
KDNKPAAGEAPSQSG | 623 | 16700 | 27600 | 348 | 190 | 14800 | 191 | 559 | 228 | 368 | 120
STPPSGTDKKTATGG | 34500 | 4300 | 35000 | 8790 | 28400 | 8380 | 838 | 142 | 198 | 648 | 256
GTDNKTAAGEAPSQS | 354 | 18600 | 32000 | 331 | 318 | 8270 | 149 | 679 | 1110 | 103 | 121
KDNKAATGGAPSPSG | 305 | 222 | 408 | 336 | 234 | 1300 | 242 | 792 | 116 | 80.2 | 83.6
GTDKKTAAGEAPSQS | 606 | 7510 | 4100 | 1940 | 1270 | 7910 | 182 | 418 | 172 | 192 | 108
